Measurements published in the supplement of paper PMC6135742.
Structures can show the parent of a compound that is named as a salt. ± gives the standard deviation of the averaged measurements. The full ranking holds about 2,600 compounds; the median of “total cell number (DAPI+ nuclei) relative to DMSO vehicle control” is about -1.4, and the lowest 2% start at about -23. The list shows a part of the results.

System: jimpy (Plp1 jimpy) mouse iPSC-derived oligodendrocyte progenitor cells
Assay: total cell number (DAPI+ nuclei) relative to DMSO vehicle control (SDs above negative control mean); higher = more surviving cells
Settings: 10 µM; 3 days

Structure (SMILES) | total cell number
CN(C)C(=O)[C@H](O)[C@H](Cc1ccccc1)NC(=O)c1cc2cc(Cl)ccc2[nH]1 | 0.79 ± 0.2
COc1ccc(C2CC(=O)c3c(O)cc(OC4OC(COC5OC(C)C(O)C(O)C5O)C(O)C(O)C4O)cc3O2)cc1OC (stereo not given) [Methyl-Hesperidin] | -1.13
Cc1cc(CN2CCN(c3c(Br)cnc4nc(-c5ccc(N6CCN(C)CC6)cc5)[nH]c34)CC2)no1 | -11.4
CC(=O)/C=C1/C(=O)N(C)c2ccccc21 [Supercinnamaldehyde] | -2.46
N[C@@H](Cc1cc(I)c(Oc2ccc(O)c(I)c2)c(I)c1)C(=O)O [Liothyronine Sodium] | 2.19
Cc1ccc(=O)n(-c2ccccc2)c1 [Pirfenidone] | -0.894 ± 0.42
CS(=O)(=O)c1ccc(-n2nc(C(F)(F)F)cc2-c2ccc(F)cc2)cc1 | -0.978
C[C@H](CCC(=O)O)[C@H]1CC[C@H]2[C@@H]3[C@@H](O)C[C@@H]4C[C@H](O)CC[C@]4(C)[C@H]3CC[C@]12C [Ursodiol] | 1.96
Cc1cc(NC(=O)Nc2ccc3c(ccn3C)c2)sn1 | -1.4
O=C(CCCN1CCN(c2ccccn2)CC1)c1ccc(F)cc1 [Azaperone] | -0.285
O=C(Nc1ccncc1)c1cc([N+](=O)[O-])ccc1Cl | -5.18 ± 2.6
N[C@@H](CS(=O)O)C(=O)O [L-Cysteinesulfinic Acid] | -1.64
COCCCN1CCC(NC(=O)c2cc(Cl)c(N)c3c2OCC3)CC1 [Prucalopride Succinat] | 0.55
COCCCN1CCC(NC(=O)c2cc(Cl)c(N)c3c2OCC3)CC1 [Prucalopride] | 0.665
C[C@@H](CN1CCC(Cc2ccccc2)CC1)[C@@H](O)c1ccc(O)cc1 [Ro 25-6981 hydrochloride] | 6.11
N#Cc1cc2nc(O)c(O)nc2cc1[N+](=O)[O-] [CNQX disodium] | -0.302
COC(=O)C1=C(C#N)NC(C)=C(C(=O)OC(C)C)C1c1cccc([N+](=O)[O-])c1 (stereo not given) [Nilvadipine] | -7.9
OCCN(CCO)c1nc(N2CCCCC2)c2nc(N(CCO)CCO)nc(N3CCCCC3)c2n1 [Dipyridamole] | 1.22 ± 0.84
Cc1ccc(NC(=O)c2cccc(C(C)(C)C#N)c2)cc1Nc1ccc2ncn(C)c(=O)c2c1 | -5.53
CC[C@H](CO)Nc1nc(NCc2ccccc2)c2ncn(C(C)C)c2n1 [Roscovitine] | -2.91
CC[C@H](CO)Nc1nc(NCc2ccccc2)c2ncn(C(C)C)c2n1 [Roscovitine (Seliciclib,CYC202)] | -7.35
C[N+](C)(C)CC(=O)O [Betaine hydrochloride] | -1.13
CC[C@@H](C)Nc1cc(C(=O)N[C@H]2C[C@H]3CC[C@@H](C2)N3c2ccc(C(=O)C3CC3)cn2)c(C)cc1C(N)=O | -16.2
Cc1ccc(F)c(NC(=O)Nc2ccc(-c3cccc4[nH]nc(N)c34)cc2)c1 [Linifanib (ABT-869)] | -13
CC(C)OC(=O)C1=CN(C(=O)c2ccc(F)c(F)c2)CC(C)(C)c2c1[nH]c1ccccc21 | -1.15

Structure (SMILES) | total cell number
CN1CCN(C(c2ccccc2)c2ccccc2)CC1 [Cyclizine 2HCl] | 0.00402
O=C(/C=C\n1cnc(-c2cc(C(F)(F)F)cc(C(F)(F)F)c2)n1)N1CC(F)(F)C1 | -13.6
CC(C)(C)[N+]([O-])=Cc1ccc(S(=O)(=O)O)cc1S(=O)(=O)O | -1.02
Nc1nc(Cl)nc2c1ncn2[C@@H]1O[C@H](CO)[C@@H](O)[C@H]1O [2-Chloroadenosine] | -3.18
NO [Hydroxylamine hydrochloride] | -0.846
Cc1cccc(CC(=O)N2CCc3c2ccc(-c2cn(C)c4ncnc(N)c24)c3F)n1 | -2.13 ± 0.79
Nc1cc(Cl)c(NC2=NCCN2)c(Cl)c1 [p-Aminoclonidine hydrochloride] | -1.08
CC(C)OC(=O)OCOP(=O)(CO[C@H](C)Cn1cnc2c(N)ncnc21)OCOC(=O)OC(C)C [Tenofovir Disoproxil Fumarate] | -9.72
O=C(Nc1cccc(C(=O)Nc2ccc(S(=O)(=O)O)c3cc(S(=O)(=O)O)cc(S(=O)(=O)O)c23)c1)Nc1cccc(C(=O)Nc2ccc(S(=O)(=O)O)c3cc(S(=O)(=O)O)cc(S(=O)(=O)O)c23)c1 | -0.289
Cc1ccc(S(=O)(=O)Cc2nc(-c3ccc(C(=O)NCc4cccnc4)cc3)oc2C)cc1 | -13.3
CNC(=O)c1cc(Oc2ccc(NC(=O)Nc3ccc(Cl)c(C(F)(F)F)c3)cc2)ccn1 [Sorafenib] | 3.2
CNC(=O)c1cc(Oc2ccc(NC(=O)Nc3ccc(Cl)c(C(F)(F)F)c3)cc2)ccn1 [Sorafenib Tosylate] | 6.18
COc1cccc2c1C(=O)c1c(O)c3c(c(O)c1C2=O)C[C@@](O)(C(C)=O)C[C@@H]3O[C@H]1C[C@H](N)[C@H](O)[C@H](C)O1 [Daunorubicin HCl] | 24.1
C=CC1=C(C(=O)O)N2C(=O)[C@@H](NC(=O)/C(=N\O)c3csc(N)n3)[C@H]2SC1 [Cefdinir] | -2.33
CN1C(CCl)Nc2cc(Cl)c(S(N)(=O)=O)cc2S1(=O)=O (stereo not given) [Methyclothiazide] | -9.64
OCc1ccccc1O[C@@H]1O[C@H](CO)[C@@H](O)[C@H](O)[C@H]1O [Salicin] | -13.3
Nc1ncnc2c1nc(Br)n2C1OC2COP(=O)(O)O[C@@H]2C1O (stereo not given in full) [8-Bromo-cAMP sodium] | -0.722
C=C1CC[C@@H]2[C@](C)(CO)[C@H](O)CC[C@@]2(C)[C@@H]1C/C=C1/C(=O)OC[C@H]1O [Andrographolide] | -9.57
Cc1cn([C@H]2C=C[C@@H](CO)O2)c(=O)[nH]c1=O [Stavudine (d4T)] | -0.233
CC(=O)NS(=O)(=O)c1ccc(N)cc1 [Sulfacetamide Sodium] | 0.39
CCN(CC)CC(=O)Nc1c(C)cccc1C [Lidocaine hydrochloride] | -1.34
CCN(CC)CC(=O)Nc1c(C)cccc1C [Lidocaine] | -1.04
CC(C=CC(=O)NO)=CC(C)C(=O)c1ccc(N(C)C)cc1 (stereo not given) [Trichostatin A (TSA)] | -19.9
c1ccc2c(CC3=NCCN3)cccc2c1 [Naphazoline hydrochloride] | -0.634
c1ccc2c(CC3=NCCN3)cccc2c1 [Naphazoline HCl] | -1.57
